According to the supplement of paper PMC4967469:

What was measured:
Assay in all cases: Viability of human cancer cell lines after 72 h of drug (GDSC screen)
[1] = compound: CC(=O)O[C@@]12CO[C@@H]1C[C@H](O)[C@@]1(C)C(=O)[C@H](O)C3=C(C)[C@@H](OC(=O)[C@H](O)[C@@H](NC(=O)OC(C)(C)C)c4ccccc4)C[C@@](O)([C@@H](OC(=O)c4ccccc4)[C@H]21)C3(C)C [Docetaxel]; conditions: top dose 0.0125 µM
Procedure: (§1)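 Human cancer cell lines in 384-well plates, medium with 10% serum, drug for 72 h over a 256-fold dose range (nine 2-fold or five 4-fold steps up to the top dose). Adherent lines were fixed and stained with the nucleic acid dye Syto60, suspension lines read with resazurin; signal relative to control wells, capped at 0 and 100%. One two-parameter sigmoid per drug and line, fitted in a mixed model over all curves with the slope shared within a line.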

[2] = compound: CC1(C)CNc2cc(NC(=O)c3cccnc3NCc3ccncc3)ccc21 [AMG-706]; conditions: top dose 2 µM; top dose inferred
Procedure: as §1

[3] = compound: CC1=C2C[C@H]3[C@@H](CC=C4C[C@@H](O)CC[C@@]43C)[C@@H]2CC[C@]12O[C@@H]1C[C@H](C)CN[C@H]1[C@H]2C [Cyclopamine]; conditions: top dose 16 µM; top dose inferred
Procedure: as §1

[4] = compound: CCOc1nc(NC(=O)Cc2cc(OC)ccc2OC)cc(N)c1C#N [JNK Inhibitor VIII]; conditions: top dose 10 µM; top dose inferred
Procedure: as §1

[5] = compound: CN1CCN(c2ccc([N+](=O)[O-])c3no[n+]([O-])c23)CC1 [NSC-207895]; conditions: top dose 20 µM; top dose inferred
Procedure: as §1

[6] = compound: COC(=O)[C@H](CCSC)NC(=O)c1ccc(NC[C@@H](N)CS)cc1-c1ccccc1 [FTI-277]; conditions: top dose 1.024 µM; top dose inferred
Procedure: as §1

[7] = compound: COCC[n+]1c2c(n(Cc3cnccn3)c1C)C(=O)c1ccccc1C2=O [YM155]; conditions: top dose 5.12 µM
Procedure: as §1

[8] = compound: COc1cc(N2CCC(N3CCN(C)CC3)CC2)ccc1Nc1ncc(Cl)c(Nc2ccccc2S(=O)(=O)C(C)C)n1 [NVP-TAE684]; conditions: top dose 2 µM
Procedure: as §1

[9] = compound: C[C@]1(O)C[C@@H](c2nc(-c3ccc4ccc(-c5ccccc5)nc4c3)c3c(N)nccn32)C1 [OSI-906]; conditions: top dose 2.56 µM; top dose inferred
Procedure: as §1

[10] = compound: Cc1ccc(C(=O)N(CCCN)[C@@H](c2nc3cc(Cl)ccc3c(=O)n2Cc2ccccc2)C(C)C)cc1 [SB-715992]; conditions: top dose 0.128 µM; top dose inferred
Procedure: as §1

[11] = compound: Cc1sc2c(c1C)C(c1ccc(Cl)cc1)=N[C@@H](CC(=O)OC(C)(C)C)c1nnc(C)n1-2 [JQ1]
Procedure: as §1

[12] = compound: O=C(/C=C/c1cccc(S(=O)(=O)Nc2ccccc2)c1)NO [Belinostat]; conditions: top dose 20 µM; top dose inferred
Procedure: as §1

[13] = compound: OCCCNc1cc(-c2ccnc(Nc3cccc(Cl)c3)n2)ccn1 [CGP-60474]; conditions: top dose 0.256 µM; top dose inferred
Procedure: as §1

[14] = compound: c1ccc2c(CCNc3ccc(Nc4ccncc4)cc3)c[nH]c2c1 [JNJ-26854165]; conditions: top dose 10 µM
Procedure: as §1

[15] = top dose 1 µM, screen: GDSC drug entry 1218, top dose inferred
[16] = top dose 2.56 µM, screen: GDSC drug entry 163

Cell Line	AUC [1]	IC50 [1] [nM]	AUC [2]	IC50 [2] [nM]	AUC [3]	IC50 [3] [µM]	AUC [4]	IC50 [4] [µM]	AUC [5]	IC50 [5] [µM]	AUC [6]	IC50 [6] [nM]	AUC [7]	IC50 [7] [nM]	AUC [8]	IC50 [8] [nM]	AUC [9]	IC50 [9] [nM]	AUC [10]	IC50 [10] [nM]	AUC [11, 15]	IC50 [11, 15] [nM]	AUC [11, 16]	IC50 [11, 16] [nM]	AUC [12]	IC50 [12] [µM]	AUC [13]	IC50 [13] [nM]	AUC [14]	IC50 [14] [µM]
LAN-6 (neuroblastoma, adherent)	0.868	> 12.5	0.98	> 2000	0.984	> 16	0.983	> 10	0.978	> 20	0.981	> 1020	0.419	184	0.557	185	0.626	381	0.983	> 128	0.975	> 1000	0.854	> 2560	0.762	8.47	0.764	110	0.864	> 10
LB647-SCLC (small cell lung carcinoma, semi-adherent)	0.89	> 12.5	0.967	> 2000	0.913	> 16	0.977	> 10	0.874	> 20	0.982	> 1020	0.374	138	0.85	1810	0.774	1130	0.746	44.7	0.983	> 1000	0.862	> 2560	0.802	11.2	0.9	> 256	0.939	> 10
LB771-HNC (head and neck, adherent)	0.928	> 12.5	0.982	> 2000	0.962	> 16	0.982	> 10	0.956	> 20	0.964	> 1020	0.584	575	0.788	1120	0.586	293	0.847	> 128	0.979	> 1000	0.585	290	0.562	1.92	0.682	59.2	0.929	> 10
MFH-ino (soft tissue, adherent)	0.624	1.82	0.982	> 2000	0.966	> 16	0.968	> 10	0.879	> 20	0.98	> 1020	0.039	< 20	0.615	274	0.966	> 2560	0.961	> 128	0.977	> 1000	0.844	2330	0.549	1.74	0.659	48.1	0.875	> 10

A lower IC50 marks a more sensitive line; a limit (>, <) means that the fit lies beyond the doses tested. AUC sums up the same curve from the lowest dose to the 256-fold higher top dose; values near 1 show little effect. For part of these data: The top dose, if marked as inferred, is not printed in the source and was worked back from the curve model. For part of these data: An entry number marks a drug with two screens in the source, which often give different values.
